According to the BET-seq Pho4 binding data (Le et al. 2018):
The list shows a part of the results. The energies were worked out here from pooled read counts, against the library average; single values are noisy.

Target: T1, Pho4 (S. cerevisiae) (UniProt P07270)
T1 sequence: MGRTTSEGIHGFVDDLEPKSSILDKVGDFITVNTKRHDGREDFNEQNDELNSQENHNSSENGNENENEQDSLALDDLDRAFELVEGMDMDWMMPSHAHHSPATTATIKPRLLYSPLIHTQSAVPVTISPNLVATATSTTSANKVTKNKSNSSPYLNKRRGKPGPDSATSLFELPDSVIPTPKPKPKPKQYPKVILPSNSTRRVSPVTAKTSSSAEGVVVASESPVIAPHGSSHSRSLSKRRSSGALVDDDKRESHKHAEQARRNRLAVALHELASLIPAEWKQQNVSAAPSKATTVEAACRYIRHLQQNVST
Test: relative binding free energy (BET-seq); higher = weaker binding
Settings: reference: library average

Relative binding free energy, -0.13 kcal/mol:
CTAGGCACGTGGATAG
CGATGCACGTGGTTTA
ACGGGCACGTGGTTGG

Relative binding free energy, -0.18 kcal/mol:
GTCTGCACGTGGGTCT
ATTGACACGTGGTTGC

Relative binding free energy, 0.32 kcal/mol:
GGGTTCACGTGATGAA

Relative binding free energy, 0.25 kcal/mol:
ATAGTCACGTGTTCCG
TTGTCCACGTGAGTTA
CGGGTCACGTGTTACG
TGAATCACGTGAATGG

Relative binding free energy, 0.1 kcal/mol:
GTATGCACGTGTGGTC
GGGAGCACGTGTGATA

Relative binding free energy, 0.21 kcal/mol:
GGATGCACGTGTATGA
AATATCACGTGGTAAG
TGCTACACGTGTATAT

Relative binding free energy, -0.2 kcal/mol:
TGAGGCACGTGCATAG
TGTGCCACGTGCGTGA
CTGGCCACGTGGGTGA

Relative binding free energy, -0.05 kcal/mol:
GTGCGCACGTGTTAAG
GGGGGCACGTGATTAA
GCTTGCACGTGCGTTG
AGGCACACGTGATGGG
GGTAACACGTGGTTAT

Relative binding free energy, 0.33 kcal/mol:
CGAGGCACGTGAGATT
TGGCTCACGTGTAGTC
GAGTTCACGTGTCTTG
CGTGTCACGTGTAAAT
GTTTTCACGTGTTGGA

Relative binding free energy, -0.28 kcal/mol:
AGTGGCACGTGGTATC

Relative binding free energy, -0.11 kcal/mol:
GAAACCACGTGGGTGT
GTAGGCACGTGTTAGC
TGGAGCACGTGGTGAA
TTACACACGTGGGGCG
TGTATCACGTGGCGTA
TAATGCACGTGTTTAT

Relative binding free energy, 0.3 kcal/mol:
TGCTTCACGTGATGGA

Relative binding free energy, -0.04 kcal/mol:
CTGGTCACGTGGGGTA
TATAGCACGTGTATAA
AATTCCACGTGGGTTT
TGTATCACGTGGGGGG
GGGTGCACGTGCGTTC
ACATGCACGTGTTGGG
TTGGCCACGTGGAATG

Relative binding free energy, -0.22 kcal/mol:
TGTGGCACGTGGCTGA
CTGGCCACGTGGCGGG

Relative binding free energy, -0.06 kcal/mol:
GGATGCACGTGGTCGT
CTGGGCACGTGTCTTT
AGGGTCACGTGCGTCT
GGGGGCACGTGCAAAT

Relative binding free energy, -0.32 kcal/mol:
GGTCCCACGTGGGGGA

Relative binding free energy, 0.28 kcal/mol:
GCGTACACGTGAGGGT
GCAAGCACGTGAGGTT

Relative binding free energy, 0.43 kcal/mol:
TCTCACACGTGATTGG
TTGCTCACGTGAGTTT

Relative binding free energy, -0.23 kcal/mol:
ATGGGCACGTGGGCAT

Relative binding free energy, 0.27 kcal/mol:
AAGTTCACGTGGCGGC
TTTATCACGTGTGGCG

Relative binding free energy, 0.35 kcal/mol:
CATTTCACGTGAAATG
GATTTCACGTGTTTTT
TCGATCACGTGATGTG
TTGGTCACGTGAAAGA
AAGTTCACGTGGGATC

Relative binding free energy, 0.14 kcal/mol:
TTTATCACGTGTTCTG
CCGGTCACGTGAGGGT
TGTTTCACGTGGCCGT
TGCGGCACGTGAAGAT

Relative binding free energy, -0.21 kcal/mol:
TTTGACACGTGCCGGG

Relative binding free energy, 0.15 kcal/mol:
GGGAACACGTGTCGGA
TTATCCACGTGATTTG
TTAGACACGTGTAGTC
GTTTACACGTGTAGTA
TTCTACACGTGCTGTT

Relative binding free energy, -0.01 kcal/mol:
GTGTGCACGTGACGTG
ATAGGCACGTGAAAGG
TAATGCACGTGTCATG
GCGGGCACGTGGGATT
TTGAGCACGTGATTCT
TCTGGCACGTGTATAA
CTTAACACGTGCGGGT
GTGGGCACGTGTGAGG

Relative binding free energy, 0.4 kcal/mol:
TAGTTCACGTGTTAAG

Relative binding free energy, 0.19 kcal/mol:
TGTATCACGTGTGCGG
TTATTCACGTGGTAGC
GTTCTCACGTGTGCGT
TATTTCACGTGGTTCA
GTGGTCACGTGGTTCT

Relative binding free energy, 0.12 kcal/mol:
TAAGGCACGTGAGGCT
AGGTACACGTGATTAT
TGACACACGTGTGTTT
GATTGCACGTGGCGGA
GGGGTCACGTGGCGCG
GGATACACGTGGGAAT
TCGGTCACGTGACTGT
TTGGACACGTGACAGG
TGTTACACGTGTTATG

Relative binding free energy, 0.42 kcal/mol:
CTTTTCACGTGAGGTC

Relative binding free energy, 0.09 kcal/mol:
TAGTACACGTGTTATA
CGGGGCACGTGAGTCG

Relative binding free energy, 0.08 kcal/mol:
GTGTACACGTGCTGGC
TAGTGCACGTGAAGAG

Relative binding free energy, 0.06 kcal/mol:
GACATCACGTGTTGTG
TAGGTCACGTGGAATA
GGAGGCACGTGAGGAG
CGGGTCACGTGCCGGT
AACATCACGTGTGGTG
GGTTTCACGTGGAGAA
TTGCACACGTGGATGT

Relative binding free energy, -0.3 kcal/mol:
CAAGGCACGTGGGTGG

Relative binding free energy, -0.19 kcal/mol:
TGTCGCACGTGCGGTG
CTGCGCACGTGCGGGT
TAACGCACGTGGGGTT

Relative binding free energy, 0.41 kcal/mol:
TTAATCACGTGAGATG

Relative binding free energy, 0.18 kcal/mol:
GCGTTCACGTGGGTGC
CTCTACACGTGGTTTT
GCTATCACGTGTGAGG
GATAGCACGTGACGGG

Relative binding free energy, 0.05 kcal/mol:
TTTTCCACGTGTATGG
TCGTGCACGTGTGGTT
AGTGTCACGTGGTGAC
CAGATCACGTGGTGTT

Relative binding free energy, -0.16 kcal/mol:
TGTAACACGTGGTGTG
GCATGCACGTGGGCAG
TCGAGCACGTGGGGTA
GATGGCACGTGCGGCG

Relative binding free energy, 0.13 kcal/mol:
ATGATCACGTGTTTTG
GGTGACACGTGGTATT
TTGGTCACGTGCGAAG
AGGATCACGTGTGTGC
GTGATCACGTGCTGGA
ATGGACACGTGTGAGA
AATGACACGTGTGGGG
GTTTACACGTGTGCAT
TAAATCACGTGTGTTA
GTTGTCACGTGGCAGA

Relative binding free energy, 0.01 kcal/mol:
TTTTGCACGTGTTAAC
TGATACACGTGTTAAT

Relative binding free energy, -0.15 kcal/mol:
ATGGGCACGTGCAGGG
AGGACCACGTGGGGCG

Relative binding free energy, -0.09 kcal/mol:
ATTCGCACGTGGGCTG
GTATGCACGTGGATGG

Relative binding free energy, 0.04 kcal/mol:
TCAGTCACGTGGTCTT
TGGGGCACGTGTAGCT

Relative binding free energy, -0.02 kcal/mol:
TTTGACACGTGGTCTG
TTGACCACGTGCTGGT
AGTGTCACGTGTCTAT
TGAAGCACGTGGTTGT
TTTGACACGTGGATAA
ACGGTCACGTGGGTTC

Relative binding free energy, -0.12 kcal/mol:
TATAGCACGTGTGGGC
TATTGCACGTGTTTGC
TGGAACACGTGGCGGT
GAATGCACGTGGTCGG
AGTAACACGTGGGATG

Relative binding free energy, 0.17 kcal/mol:
AGGCGCACGTGAGGTA
GAGTACACGTGTGGGG

Relative binding free energy, 0.07 kcal/mol:
AGGGACACGTGCAAGT
TCGGTCACGTGTGTCG
CGTGTCACGTGTCTTA
TTGTCCACGTGGTAGA
TAATGCACGTGTTGGG

Relative binding free energy, 0.11 kcal/mol:
TGTTACACGTGCGTTT
AGGAGCACGTGATGCA
TAGGTCACGTGCAGAT
GTTGACACGTGATTGA

Relative binding free energy, 0.38 kcal/mol:
TGTCTCACGTGAGTTC
GTGGTCACGTGAGCAG
TGCTTCACGTGAGGGA

Relative binding free energy, -0.17 kcal/mol:
TACTGCACGTGGTGAT
TTAAGCACGTGGTGAA

Relative binding free energy, 0.02 kcal/mol:
TGCGTCACGTGGGATG
TGGTACACGTGTTACT
AGGTACACGTGGTGAT
TGAATCACGTGCGTGG
TGGACCACGTGTGATT

Relative binding free energy, 0.31 kcal/mol:
GCGATCACGTGGTGAG
GGTTGCACGTGAATTG
AGTTACACGTGAGTGG

Relative binding free energy, 0.26 kcal/mol:
GTTTACACGTGTTTTT
TTGTACACGTGAGGGT

Relative binding free energy, -0.07 kcal/mol:
TGTAGCACGTGTACGT
TGGCGCACGTGTGTCG
TCTTACACGTGGAGTG

Relative binding free energy, 0.16 kcal/mol:
AGGGTCACGTGATCGT
ATTGTCACGTGTGCCA
AGGTGCACGTGAGTTT

Relative binding free energy, -0.33 kcal/mol:
CATAGCACGTGGGGTA

Relative binding free energy, 0.03 kcal/mol:
TGATGCACGTGTAGTC
TGTTGCACGTGTAGCT

Relative binding free energy, 0.39 kcal/mol:
GGTGTCACGTGAATGG

Relative binding free energy, -0.03 kcal/mol:
TGAGGCACGTGATAGG
AAGCGCACGTGTTGGG
GACTGCACGTGGTGGC
TGTGTCACGTGGTGCG
AGACGCACGTGGGAAG
TGTTCCACGTGGGGTG
AGTAACACGTGGGAAT
TTAGGCACGTGGATCA
GGGGGCACGTGGACTG

Relative binding free energy, 0.23 kcal/mol:
TCACTCACGTGTGTTG
TGGAACACGTGTGATA
TACTTCACGTGTAGTT

Relative binding free energy, -0.26 kcal/mol:
CGGGCCACGTGGGTGA

Relative binding free energy, 0.22 kcal/mol:
ATTATCACGTGCGGCG
ATATGCACGTGAAGAG
TAGCTCACGTGTATTT
AGGTTCACGTGACAGG

Relative binding free energy, 0 kcal/mol:
AGGGTCACGTGGTTAG
GAGGTCACGTGGGCTT
GGTCGCACGTGGCGTG
GTGTACACGTGGGTGG
TACGGCACGTGTTTGA
AGTGGCACGTGTGGAT

Relative binding free energy, -0.1 kcal/mol:
TGGAGCACGTGGTCCT
TCGTGCACGTGCGGGT
TTTGCCACGTGGCGGA
TGATACACGTGGTGGC

Relative binding free energy, -0.14 kcal/mol:
CTTTGCACGTGGAGGG
TGCGGCACGTGGTATG
GAAAGCACGTGGGTTT
GTGCGCACGTGTTATT

Relative binding free energy, -0.24 kcal/mol:
TGGTGCACGTGCGCAG
TAGGGCACGTGGCGCG
CTGCGCACGTGGGTAG
GGTGGCACGTGCTAGT

Relative binding free energy, 0.24 kcal/mol:
TTCGTCACGTGAGGTA
AGGATCACGTGACGGT
CTTTACACGTGATAGT

Relative binding free energy, 0.36 kcal/mol:
TCAGTCACGTGAGATT
ACGTTCACGTGATAGT
TTAGTCACGTGATTGG
